The labels stand for the following.
B1: glmS ribozyme (parent)
chain: AUAAAAGCGCCAGAACUACAGAAAUGUAGUUGACGAGGAGGAGGUUUAUCGAAUUUUCGGCGGAUGCCUCCAAA

± gives the standard error. Variants at the floor of the assay are shown more often than the library holds them.

Conditions in all cases: with glucosamine-6-phosphate
In data set [1] the parent is B1. Kind of data set: self-cleavage kobs at 40 uM GlcN6P; higher = faster cleavage; RNA array. An outline of the steps:
(§1)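 Barcoded glmS ribozyme variants on sequenced MiSeq chips were transcribed in situ by E. coli RNA polymerase and tracked through a hybridised Cy3 probe at 37 °C. Glucosamine-6-phosphate (40 μM to 10 mM) in HEPES/KCl/Mg(OAc)2 buffer was flowed in, and tiles were imaged over ~14 h. Signals were normalised to baseline and to non-cleaving reference variants; per-tile medians were fit to one- or two-exponential decays to give kobs. kcat and KM came from weighted Michaelis–Menten fits across concentrations.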

Data set [2] covers variants of B1. Kind of data set: self-cleavage kobs at 640 uM GlcN6P; higher = faster cleavage; RNA array. An outline of the steps: as §1
Variants of B1 are the subject of data set [3]. Kind of data set: self-cleavage kobs at 160 uM GlcN6P; higher = faster cleavage; RNA array. An outline of the steps:
as §1

Variants of B1 are the subject of data set [4]. Kind of data set: self-cleavage kobs at 2500 uM GlcN6P; higher = faster cleavage; RNA array. In short, it runs like this: as §1
Variants of B1 are the subject of data set [5]. Kind of data set: self-cleavage kobs at 10000 uM GlcN6P; higher = faster cleavage; RNA array. In short, it runs like this: as §1

As to G29C A52G A53C, the “self-cleavage kobs at 40 uM GlcN6P” value in data set [1] was under 1e-05 s⁻¹. In data set [2], the “self-cleavage kobs at 640 uM GlcN6P” value was under 1e-05 s⁻¹. For the same variant, the “self-cleavage kobs at 160 uM GlcN6P” value in data set [3] was under 1e-05 s⁻¹. Also, the “self-cleavage kobs at 2500 uM GlcN6P” value in data set [4] was under 1e-05 s⁻¹. The “self-cleavage kobs at 10000 uM GlcN6P” value in data set [5] is under 1e-05 s⁻¹.
As for A12U G41A G44C U55G, in data set [1], the “self-cleavage kobs at 40 uM GlcN6P” value was under 1e-05 s⁻¹.
Regarding A12U U47C, the “self-cleavage kobs at 40 uM GlcN6P” value in data set [1] was 0.00032 ± 3.3e-05 s⁻¹. Moreover, in data set [2], the “self-cleavage kobs at 640 uM GlcN6P” value turned out to be 0.00299 ± 0.00033 s⁻¹. The “self-cleavage kobs at 160 uM GlcN6P” value in data set [3] is 0.000599 ± 0.0001 s⁻¹. Moreover, in data set [4], the “self-cleavage kobs at 2500 uM GlcN6P” value amounted to 0.0111 ± 0.0021 s⁻¹. Further, the “self-cleavage kobs at 10000 uM GlcN6P” value in data set [5] came out at 0.00873 ± 0.0011 s⁻¹.
As to G13U C50G, the “self-cleavage kobs at 40 uM GlcN6P” value in data set [1] was 4.61e-05 ± 1.2e-05 s⁻¹. In addition, the “self-cleavage kobs at 640 uM GlcN6P” value in data set [2] was determined as 6.9e-05 ± 1.6e-05 s⁻¹. In addition, in data set [3], the “self-cleavage kobs at 160 uM GlcN6P” value came to 8.07e-05 ± 1.7e-05 s⁻¹. For the same variant, in data set [4], the “self-cleavage kobs at 2500 uM GlcN6P” value amounted to 5.61e-05 ± 1.2e-05 s⁻¹.
For A15U U31G C71U, the “self-cleavage kobs at 40 uM GlcN6P” value in data set [1] was 6.97e-05 ± 3.1e-05 s⁻¹. The “self-cleavage kobs at 640 uM GlcN6P” value in data set [2] was determined as 0.000238 ± 3.6e-05 s⁻¹. The “self-cleavage kobs at 160 uM GlcN6P” value in data set [3] amounted to 6.51e-05 ± 1.8e-05 s⁻¹. In addition, the “self-cleavage kobs at 2500 uM GlcN6P” value in data set [4] amounted to 0.000267 ± 6.8e-05 s⁻¹.
Consider C11U A36G, for which the “self-cleavage kobs at 40 uM GlcN6P” value in data set [1] is under 1e-05 s⁻¹. In addition, the “self-cleavage kobs at 640 uM GlcN6P” value in data set [2] was under 1e-05 s⁻¹. The “self-cleavage kobs at 160 uM GlcN6P” value in data set [3] was under 1e-05 s⁻¹. Further, the “self-cleavage kobs at 2500 uM GlcN6P” value in data set [4] was under 1e-05 s⁻¹.
C11U G44A G59A C61G G66U: in data set [1], the “self-cleavage kobs at 40 uM GlcN6P” value was under 1e-05 s⁻¹. In data set [2], the “self-cleavage kobs at 640 uM GlcN6P” value is under 1e-05 s⁻¹. Also, in data set [5], the “self-cleavage kobs at 10000 uM GlcN6P” value is under 1e-05 s⁻¹.
With A12G C61G, in data set [1], the “self-cleavage kobs at 40 uM GlcN6P” value is under 1e-05 s⁻¹. In addition, in data set [5], the “self-cleavage kobs at 10000 uM GlcN6P” value is under 1e-05 s⁻¹.
As for A14U A39G G41C, the “self-cleavage kobs at 40 uM GlcN6P” value in data set [1] was under 1e-05 s⁻¹. Further, the “self-cleavage kobs at 2500 uM GlcN6P” value in data set [4] is under 1e-05 s⁻¹.
For the variant A14G A42U A53C C58A, in data set [1], the “self-cleavage kobs at 40 uM GlcN6P” value was under 1e-05 s⁻¹.
On to G13C G40A C68A, for which, in data set [1], the “self-cleavage kobs at 40 uM GlcN6P” value was under 1e-05 s⁻¹. In data set [5], the “self-cleavage kobs at 10000 uM GlcN6P” value is under 1e-05 s⁻¹.
For the variant C16U G63U C67U, the “self-cleavage kobs at 40 uM GlcN6P” value in data set [1] is under 1e-05 s⁻¹.
A12C G59A: the “self-cleavage kobs at 40 uM GlcN6P” value in data set [1] is under 1e-05 s⁻¹. In addition, the “self-cleavage kobs at 160 uM GlcN6P” value in data set [3] is under 1e-05 s⁻¹.
Consider A12C G59C, for which the “self-cleavage kobs at 40 uM GlcN6P” value in data set [1] is under 1e-05 s⁻¹.
Same read-out and setting: to G13C U31G A48U belongs under 1e-05 s⁻¹.
On to A12C A48C U57C G59C, for which the “self-cleavage kobs at 40 uM GlcN6P” value in data set [1] was under 1e-05 s⁻¹. Further, in data set [2], the “self-cleavage kobs at 640 uM GlcN6P” value was under 1e-05 s⁻¹. Besides, in data set [4], the “self-cleavage kobs at 2500 uM GlcN6P” value was under 1e-05 s⁻¹.
In the case of C16G G43U C71U, the “self-cleavage kobs at 40 uM GlcN6P” value in data set [1] is under 1e-05 s⁻¹. For the same variant, the “self-cleavage kobs at 640 uM GlcN6P” value in data set [2] was under 1e-05 s⁻¹. Further, in data set [5], the “self-cleavage kobs at 10000 uM GlcN6P” value was under 1e-05 s⁻¹.
In the case of G13C G37U U46C, the “self-cleavage kobs at 40 uM GlcN6P” value in data set [1] is under 1e-05 s⁻¹. Further, in data set [2], the “self-cleavage kobs at 640 uM GlcN6P” value is under 1e-05 s⁻¹.
Regarding G13C A14U C61U, the “self-cleavage kobs at 40 uM GlcN6P” value in data set [1] was under 1e-05 s⁻¹.
G13A C19A C34G: the “self-cleavage kobs at 40 uM GlcN6P” value in data set [1] was under 1e-05 s⁻¹.
With G13C C34G U49G G51U, the “self-cleavage kobs at 40 uM GlcN6P” value in data set [1] was under 1e-05 s⁻¹. The “self-cleavage kobs at 2500 uM GlcN6P” value in data set [4] was under 1e-05 s⁻¹.
Take C16U U31A G41A U69A: the “self-cleavage kobs at 40 uM GlcN6P” value in data set [1] is under 1e-05 s⁻¹. The “self-cleavage kobs at 10000 uM GlcN6P” value in data set [5] was under 1e-05 s⁻¹.
With A12U G32U C50G, the “self-cleavage kobs at 40 uM GlcN6P” value in data set [1] was 7.78e-05 ± 3.4e-05 s⁻¹.
As to A15G U30G, the “self-cleavage kobs at 40 uM GlcN6P” value in data set [1] was found to be 0.000265 ± 4.2e-05 s⁻¹.
On to C16A G41A, for which, in data set [1], the “self-cleavage kobs at 40 uM GlcN6P” value was under 1e-05 s⁻¹.
As for A14C U31C G41A, the “self-cleavage kobs at 40 uM GlcN6P” value in data set [1] was under 1e-05 s⁻¹.
Consider A12U U30C A48G, for which, in data set [1], the “self-cleavage kobs at 40 uM GlcN6P” value is under 1e-05 s⁻¹.
As for G13A U45G U69G, the “self-cleavage kobs at 40 uM GlcN6P” value in data set [1] is under 1e-05 s⁻¹. For the same variant, the “self-cleavage kobs at 640 uM GlcN6P” value in data set [2] is under 1e-05 s⁻¹.
Regarding C16G A42G, the “self-cleavage kobs at 40 uM GlcN6P” value in data set [1] was determined as 0.000233 ± 5.6e-05 s⁻¹. In addition, the “self-cleavage kobs at 640 uM GlcN6P” value in data set [2] was 0.000804 ± 0.0003 s⁻¹. Moreover, the “self-cleavage kobs at 160 uM GlcN6P” value in data set [3] came out at 0.000208 ± 9.6e-05 s⁻¹.

The values are drawn from the supplement of paper PMC7125110.
